Data: PubChem BioAssay (NCI)
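Cultured in 96-well plates, cells were exposed to test compound for 48 hours across five concentrations. Abbreviation: GI50, concentration required for 50% inhibition of growth. TGI: concentration producing complete growth inhibition.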 Peptide text beside a SMILES is read from it. * marks the point of attachment. Fmoc = O=C(OCC1c2ccccc2-c2ccccc21)*; Boc = CC(C)(C)OC(=O)*

Each compound was assayed on NCI-H322M lung (assay: NCI anticancer screen, dose series, 48 h).

Row | Compound | TGI | GI50
1 | CC(=O)OC12c3ccccc3-c3ccccc3C1C1C(=O)OC(=O)C12 (stereo unspecified) | > 10 µM | 
2 | Clc1cc(Cl)cc(N2N=C(c3cccc(Nc4ccncc4)c3)CC2c2ccc3c(c2)OCO3)c1 (stereo unspecified) | 2.95 µM | 1.57 µM
3 | COc1ccc2nc3ccc(OC)cc3c(SCc3ccccc3)c2c1 | > 50.4 µM | 
4 | CCN(CC)Cc1c(/C=C\c2cc(OC)c(OC)c(OC)c2)ccc(OC)c1O | > 100 µM | 
5 | COc1ccc(C2CC3(c4ccccc4)ON=C(c4ccccc4)N3c3ccccc3S2)cc1 (stereo unspecified) | > 100 µM | 
6 | COc1ccccc1/C=C1\NC(=S)N(/C=C2\C(=O)Oc3ccccc3C2=O)C1=O | > 100 µM | 
7 | O=C(OCc1ccccc1)N(CCCCN(CCCNCc1ccccc1)C(=O)OCc1ccccc1)CCCNCc1ccccc1 | 2.78 µM | 
8 | CC(=O)OC1COC(N2C(=O)C(=O)c3cc(Br)ccc32)C(OC(C)=O)C1OC(C)=O (stereo unspecified) | > 100 µM | 
9 | Cc1nnc(N)nc1/C=C/c1c(O)ccc2ccccc12 | 77.1 µM | 
10 | CC1CCC2(CC1)NC1=C(CC(C)CC1)C1=C2CC(C)CC1 (stereo unspecified) | 79.8 µM | 
11 | C=C[C@]1(C)CCC2=C(CCC3C2(C)CCC[C@@]3(C)COC(C)=O)C1 (stereo partly specified) | 68.8 µM | 
12 | Nc1cc(=O)n(-c2ccccc2)c(=S)n1-c1ccccc1 | > 100 µM | 
13 | CN(c1cn(C2CC[C@@H](CO)O2)c(=O)[nH]c1=O)C1CCCCC1 (stereo partly specified) | > 100 µM | 
14 | O=C1CCSC2=C1SCc1sccc12 | > 100 µM | 
15 | OCCN1CCN2C=C(C3CCCC4N(CCO)CCN34)CCC21 (stereo unspecified) | > 100 µM | 
16 | Cc1cc(C(C)(C)C)cc(CNC2CCCCC2)c1O | 35.4 µM | 
17 | O=C(Nc1ccccc1)c1cc(S(=O)(=O)Nc2nc3ccccc3o2)c(SCc2ccccc2)cc1Cl | 29.2 µM | 15 µM
18 | CC1C(OC2O[C@@H]3O[C@@]4(C)CC[C@H]5[C@H](C)CC[C@@H](C2C)[C@@]35O4)O[C@@H]2O[C@@]3(C)CC[C@H]4[C@H](C)CC[C@@H]1[C@@]24O3 (stereo partly specified) | > 50 µM | 
19 | O=c1[nH]c(=O)n(C2OC(CO)C(O)C2O)cc1Oc1ccccc1 (stereo unspecified) | > 100 µM | 
20 | O=C(c1ccco1)c1c(C(F)(F)F)n([O-])c2ccc(Cl)cc2[n+]1=O | 9.85 µM | 3.81 µM
21 | COc1cc2c(cc1Nc1nc(Nc3cccc(F)c3C(N)=O)c3cc[nH]c3n1)N(C(=O)CN1CCN(C(C)C)CC1)CC2 | 7.94 µM | 3.23 µM
22 | FC(F)(Sc1ncc[nH]1)c1nc2ccccc2o1 | > 100 µM | 
23 | CC(=O)NC(Cc1ccsc1)C(=O)O (stereo unspecified) | > 100 µM | 
24 | COP(=O)(OC)C(O)CC(C)C (stereo unspecified) | > 100 µM | 

Row | Compound | TGI | GI50
25 | O=C(Nc1n[nH]c2nnc(-c3cccnc3)cc12)C1CC1 | > 25 µM | > 12.9 µM
26 | CC(C)(C)CC(N)=O | > 100 µM | 
27 | O=C(O)c1ccc(C2SCc3nc4ccccc4n32)cc1 (stereo unspecified) | > 100 µM | 
28 | COc1ccc(/C=C2\C=C(c3ccccc3)N(CCc3ccccc3)C2=O)cc1OC | 33.2 µM | 8.77 µM
29 | CCOC1Oc2ccccc2-c2nc(SC)ncc21 (stereo unspecified) | > 100 µM | 
30 | O=C(COC(=O)c1cccc2c(=O)c3ccccc3[nH]c12)Nc1ccc(C(=O)O)cc1 | > 100 µM | 
31 | NC(N)=N/N=C/c1ccc(-c2ccc(-c3cc(Cl)cc(Cl)c3)s2)cc1 | 3.14 µM | 1.65 µM
32 | O=C(CNC(c1ccccc1)(c1ccccc1)c1ccccc1)NC1CCCCC1NC(=O)CNC(c1ccccc1)(c1ccccc1)c1ccccc1 (stereo unspecified) | > 100 µM | 
33 | OCc1c[te]c(-c2ccccc2)c1 | > 100 µM | 
34 | O=C1c2cc([N+](=O)[O-])ccc2-c2ccc3c4ccc5c6c(ccc(c7ccc1c2c73)c64)C(=O)c1cc([N+](=O)[O-])ccc1-5 | > 100 µM | 
35 | c1ccc2c(c1)CCc1[nH]c3c(c1-2)-c1ccccc1CC3 | > 100 µM | 
36 | CC(=O)Oc1ccc(/C(=C(\C)c2ccc(Cl)cc2)c2ccc(OCCN3CCCCC3)cc2)cc1 | 8.87 µM | 2.83 µM
37 | C/C(=N\Nc1nc2cccnc2s1)c1ccccn1 | > 100 µM | 
38 | CSc1nc2c(ncn2C2OCC(O)C(O)C2O)c(=O)n1C (stereo unspecified) | > 100 µM | 
39 | O=C(O)c1ccc(C(=O)O)c(C(=O)Nc2ccc3c(c2)C(=O)c2ccccc2-3)c1 | > 100 µM | 
40 | CN1CCN(c2ccc3nc(-c4ccc5nc(-c6ccc(O)cc6)[nH]c5c4)[nH]c3c2)CC1 | 597 µM | 87 µM
41 | O=C(O)CC(Sc1ccccc1)c1ccccc1 (stereo unspecified) | > 100 µM | 
42 | COc1ccc(/C=C/C(=O)c2ccc(OC)c(OC)c2)cc1O | 18.5 µM | 5.32 µM
43 | COc1ccc(C2C3CCc4ccccc4C3=NN2S(=O)(=O)c2ccc(/C=C/C(=O)O)cc2)cc1 (stereo unspecified) | > 100 µM | 
44 | COC(=O)[C@H](CC(C)C)Nc1c(O)c2c(c(O)c1Cl)C(=O)C=CC2=O | > 10 µM | 
45 | CC(C)(C)c1cc2c(O)c(c1)Cc1cc(C(C)(C)C)cc(c1O)Cc1cc(C(C)(C)C)cc(c1O)Cc1cc(C(C)(C)C)cc(c1O)Cc1cc(C(C)(C)C)cc(c1O)Cc1cc(C(C)(C)C)cc(c1O)Cc1cc(C(C)(C)C)cc(c1O)Cc1cc(C(C)(C)C)cc(c1O)C2 | > 50 µM | 
46 | COC(=O)C(C/C=C(\C)c1ccc(Cl)cc1)C(C)=O (stereo unspecified) | > 100 µM | 
47 | COc1cc2c(cc1OC)C1Cc3cc(OC)c(OC)cc3C(C2)N1C | > 75 µM | 
48 | Cn1c(NCC(O)CN2CCCC2)cc(=O)n(C)c1=O (stereo unspecified) | > 100 µM | > 100 µM

Row | Compound | TGI | GI50
49 | CCOC(=O)C(NC(=O)c1ccccc1)(Nc1ccc(Cl)cc1C(F)(F)F)C(F)(F)F (stereo unspecified) | > 100 µM | 
50 | Cc1cc(S(=O)(=O)/N=C(/[N-]S(=O)(=O)c2ccc(Cl)cc2)[n+]2ccc(N(C)C)cc2)c(SCC(=O)O)cc1Cl | > 100 µM | 
51 | OCc1ccc(N2CCc3ccccc3C2)cc1Cl | 3.98 µM | 0.579 µM
52 | COc1cc(-c2cc(-c3cc(OC)c(OC)c(OC)c3)nc3nc(N)[nH]c(=O)c23)ccc1Oc1ccnc2cc(Cl)ccc12 | 34.1 µM | 3.33 µM
53 | O=Cc1ccc(CCl)cc1 | 54.5 µM | 
54 | Fc1ccc(-c2sc(-c3cccs3)cc2Cc2cccs2)cc1 | > 100 µM | 
55 | COc1ccc(C2=NN(C(=O)c3cc(OC)c(OC)c(OC)c3)C(c3ccc(N(C)C)cc3)C2)cc1 (stereo unspecified) | > 100 µM | 9.2 µM
56 | CCOc1cccc(-c2nc(N)nc(Nc3ccccc3SSc3ccccc3Nc3nc(N)nc(-c4cccc(OCC)c4)n3)n2)c1 | > 100 µM | 34.9 µM
57 | O=C1C=CC(=O)c2c1ccc1c3ccccc3n(Cc3cccc([N+](=O)[O-])c3)c21 | > 100 µM | 
58 | COc1ccc(-n2ccnc2-c2cc(OC)c(OC)c(OC)c2)cc1 | > 100 µM | 7.62 µM
59 | O=C(CSc1nc2ccc(I)cc2c(=O)n1Cc1ccccc1)NNC(=O)c1ccccc1 | 27.2 µM | 
60 | COC(=O)C1=C(C)C=C(N2CCOCC2)C(C(=O)OC)C1c1ccccc1 (stereo unspecified) | > 10 µM | 
61 | O=c1c2cc(Cl)cc(Cl)c2oc2nc3n(c(=O)c12)CCCS3 | > 100 µM | 
62 | CCCCCCCCC(=O)OCC(CS[As](C)C)OC(=O)CCCCCCCC (stereo unspecified) | 35.1 µM | 11.5 µM
63 | Oc1cc2ccccc2c(-c2c(O)c(O)cc3ccccc23)c1O | 34.1 µM | 2.46 µM
64 | Cc1ccc(Cl)c(Nc2ccccc2C(=O)O)c1Cl | > 100 µM | 36.9 µM
65 | CC(C)NC(=O)CCN(C(=O)O)S(=O)(=O)c1ccc(NC(=O)c2ccccc2)cc1 | > 100 µM | 
66 | CC(C)(C)OC(=O)NCCCCC(NC(=O)C(Cc1c[nH]c2ccccc12)NC(=O)OCC1c2ccccc2-c2ccccc21)C(=O)N1CCCC1C(=O)NCC(N)=O (stereo unspecified) (Fmoc-WK(Boc)PG-NH2; configuration not given here) | > 100 µM | 
67 | CC(=O)NC1C(OCc2ccccc2)OC(COC(=O)CCCCCCCCCCNc2ccc([N+](=O)[O-])c3[nH]c4ccccc4c(=O)c23)C(O)C1OC(C)C(=O)NC(C)C(=O)NC(CCC(N)=O)C(=O)OCc1ccccc1 (stereo unspecified) | > 100 µM | 
68 | Cn1c(/C=C/[N+](=O)[O-])cc2ccccc21 | 43.5 µM | 17.9 µM
69 | NCCNCc1c2ccccc2c(CNCCN)c2ccccc12 | 50.8 µM | 
70 | C1CC[C@H]2SSC3CCCC[C@H]3SSC2C1 (stereo partly specified) | > 100 µM | 
71 | CS(=O)(=O)CC(=O)c1ccccc1 | > 100 µM | 
72 | COC1=CC(c2ccc[nH]2)=N/C1=C\c1[nH]c(C)c(C(=O)CCCCC(=O)Oc2ccc3c(c2)CCC2C3CC[C@]3(C)[C@@H](O)CC[C@@H]23)c1C (stereo partly specified) | > 100 µM | > 100 µM

Row | Compound | TGI | GI50
73 | O=S(=O)(/N=c1/scc(-c2ccccc2)n1-c1ccccc1)c1ccc(N2N=C3c4ccccc4CC3C2c2cccs2)cc1 (stereo unspecified) | 83.7 µM | 31.4 µM
74 | COC(=O)C1(C(=O)OC)N=C(C)OC1/C=C/c1ccccc1 (stereo unspecified) | > 100 µM | 
75 | CC(=O)OC12COC1CC(O)C1(C)C(=O)C(O)C3=C(C)C(O)CC(O)(C(OC(=O)c4ccccc4)C21)C3(C)C (stereo unspecified) | > 100 µM | 
76 | C[C@@H](NC(=O)c1ccc(CNC(=O)/C=C/c2cccc(Oc3ccccc3)c2)cc1)c1ccccc1 | > 100 µM | 
77 | Cc1cccc(-c2cc(=O)c3c(C)cc(C)nc3[nH]2)c1 | > 100 µM | 
78 | O=C(Nc1ccc(/C=C/c2ccc(NC(=O)c3cc(S(=O)(=O)O)c4cccnc4c3O)cc2S(=O)(=O)O)c(S(=O)(=O)O)c1)c1cc(S(=O)(=O)O)c2cccnc2c1O | > 76.6 µM | > 55.9 µM
79 | Clc1ccc(-c2cc(-c3ccccc3)nc(NCCNc3ccnc4cc(Cl)ccc34)n2)cc1 | 3.08 µM | 1.65 µM
80 | COc1cc([C@@H]2C[C@H]2c2cc(SC)n[nH]2)cc(OC)c1OC | > 100 µM | 29.8 µM
81 | COc1cc(-c2[o+]c3cc(O)cc(O)c3cc2O)cc(O)c1O | > 100 µM | 
82 | O=C(/C(=C\c1ccc(Cl)cc1)c1ccccc1)c1ccccc1 | > 100 µM | 
83 | Nc1nc2c(ncn2Cc2ccccc2CO)c(=O)[nH]1 | > 100 µM | 
84 | Cc1ccc(S(=O)c2sccc2C=O)cc1 (stereo unspecified) | > 100 µM | 
85 | COc1ccc(C2C(C)C(=O)C(C)C(c3ccc(OC)cc3)N2N=O)cc1 (stereo unspecified) | > 1000 µM | 
86 | Clc1ccc(-c2c(C3=NCCCN3)nnn2-c2ccccc2)cc1 | > 100 µM | 
87 | COc1cccc(N(CN2C(=O)CCC2C(=O)O)C(C)=O)c1 (stereo unspecified) | > 100 µM | 
88 | COc1cc(C(=O)Nc2cc(OC)c3ccn(C)c3c2)cc2c1C[C@]1(C)CC[C@@H](O)C(C)(C)[C@H]1O2 | > 100 µM | 6.91 µM
89 | COc1cc2c(cc1OC)C(=O)/C(=C/c1cc(OC)c(OC)c(OC)c1)C2 | > 100 µM | 
90 | Cn1c(=O)sc2cc(C(=S)N3CCC(Cc4ccccc4)CC3)ccc21 | > 100 µM | 
91 | C=C(CN1CC2C[C@](C(=O)OC)(c3cc4ccccc4[nH]3)C1C(OC)C2OC)S(=O)(=O)c1ccccc1 (stereo partly specified) | 14.4 µM | 
92 | Cc1ccc(S(=O)OCC23CC4CC(CC(C4)C2)C3)cc1 (stereo unspecified) | > 100 µM | 
93 | O=c1ssc(Cl)c1Cl | > 10 µM | 
94 | CC(OC(=O)C(CC(=O)OC(C)(C)C)NC(=O)OC(C)(C)C)C(=O)OCc1ccccc1 (stereo unspecified) | > 100 µM | 
95 | O=C1C=CC(=O)c2c1ccc1c3ccccc3n(-c3ccccc3[N+](=O)[O-])c21 | 32.4 µM | 
